# Reference: PubChem BioAssay AID2147 (National Center for Advancing Translational Sciences (NCATS), 2009)
# The whole screen tested about 230,000 compounds, of which about 3,600 (1.6%) were called active. Inconclusive results, whose numbers are uncertain, are shown with a selection of clear calls. Calls follow the shape of the dose curve; as a rule, active = well fitted inhibition curve with a large enough effect (not every such curve was filed as active); inconclusive = small, poorly fitted or top-dose-only effect, or another doubt; inactive = no such curve, though single readings can be large or run the other way. Potencies of inconclusive entries are doubtful fits and often do not repeat.
# Molecular target: Lysine-specific demethylase 4E (Homo sapiens) (UniProt B2RXH2)
# Experiment: qHTS Assay for Inhibitors of Human Jumonji Domain Containing 2E (JMJD2E)
# Conditions: JMJD2E catalytic domain, FDH-coupled NADH fluorescence (FDH is formaldehyde dehydrogenase); series mostly up to 57.1 µM; activity change, negative = inhibition: at the top concentration
# Also: nearly all actives have a fitted effect of over 50% in size.
# 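For activity change, negative = inhibition in this document: 0% = wells with enzyme and -100% = buffer wells without enzyme.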
# Potency is read from the fitted curve at half-maximal effect; tags tell the direction and shape of the fitted curve.
# UniProt B2RXH2, sequence (B2RXH2 whole entry, looked up, the tested form may be a part): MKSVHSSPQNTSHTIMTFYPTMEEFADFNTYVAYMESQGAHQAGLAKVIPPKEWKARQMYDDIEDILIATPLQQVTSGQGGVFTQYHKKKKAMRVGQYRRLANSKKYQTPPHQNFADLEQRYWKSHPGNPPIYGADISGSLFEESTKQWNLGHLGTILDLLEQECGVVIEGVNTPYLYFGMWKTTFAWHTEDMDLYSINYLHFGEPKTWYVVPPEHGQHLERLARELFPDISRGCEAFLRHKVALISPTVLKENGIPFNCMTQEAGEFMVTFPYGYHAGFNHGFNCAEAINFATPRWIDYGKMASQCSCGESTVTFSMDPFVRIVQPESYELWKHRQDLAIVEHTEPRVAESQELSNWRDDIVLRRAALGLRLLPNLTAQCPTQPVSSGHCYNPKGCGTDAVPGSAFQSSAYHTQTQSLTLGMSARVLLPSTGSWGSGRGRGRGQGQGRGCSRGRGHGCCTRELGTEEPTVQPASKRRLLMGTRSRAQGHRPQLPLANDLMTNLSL
Compound,Potency,"activity change, negative = inhibition"
COc1ccc(-n2c(SCC(=O)NCC3CCCO3)nc3n[nH]c(C)c3c2=N)cc1 (stereo unspecified),"inconclusive: 35.5 µM [inhibitor, single point]",–
CCOc1cc(/C=N/NC(=O)c2cccc([N+](=O)[O-])c2)ccc1OS(=O)(=O)c1ccccc1,–,inactive: 12.1%
CC(=O)c1nnn(-c2cccc(C#N)c2)c1C,–,inactive: -2.58%
CCc1ccc(Nc2c([N+](=O)[O-])c(=O)oc3ccccc23)cc1,–,inactive: 4.55%
O=C(c1ccccc1)c1ccc2nc(N3CCCCC3)c3nncn3c2c1,"inconclusive: 35.5 µM [inhibitor, single point]",–
O=C(O)c1cccc(NC(=S)NC(NC(=O)c2cccc([N+](=O)[O-])c2)C(Cl)(Cl)Cl)c1 (stereo unspecified),–,inactive: 2.29%
COc1ccc(C2CC(c3cccs3)=NN2C(=O)COC(=O)c2cncc(Br)c2)cc1OC (stereo unspecified),"inconclusive: 35.5 µM [inhibitor, partial curve]",–
Cc1cc(Cl)ccc1Oc1ncnc2oc(-c3ccccc3)cc12,"inconclusive: 8.91 µM [inhibitor, single point]",–
CCOc1cccc2c1OC1(CCCCC1)N1N=C(c3cccnc3)CC21 (stereo unspecified),"inconclusive: 39.8 µM [inhibitor, single point]",–
CN(C)c1ccc(-c2cc(-n3ccnc3)ncn2)cc1,"inconclusive: 28.2 µM [inhibitor, partial curve]",–
COc1cc(/C=N/N=C(N)N)ccc1OCc1ccc(Cl)cc1,–,inactive: -9.7%
COc1ccc(OC)c(-n2cc3c(=O)n(C)c(=O)n(C)c3c2)c1,"inconclusive: 25.1 µM [inhibitor, single point]",–
C=CC(C)(C)c1[nH]c2ccccc2c1C1=C(O)C(=O)C(c2c[nH]c3c(CC=C(C)C)cccc23)=C(O)C1=O,active: 25.1 µM,–
COc1ccc2c(C=O)cn(C)c2c1,–,inactive: -8.86%
Cc1ccc2[nH]c(=O)c(CN(CC3CCCO3)C(=S)Nc3ccccc3)cc2c1 (stereo unspecified),"inconclusive: 28.2 µM [inhibitor, single point]",–
Nc1ncnc(N2CCOCC2)c1N,"inconclusive: 31.6 µM [inhibitor, single point]",–
CC(CSc1nc2ccccc2s1)Cn1c(N2CCCC2)nc2c1c(=O)[nH]c(=O)n2C (stereo unspecified),–,inactive: 6.42%
CCCn1c(NCc2cc(OC)ccc2OC)nc2ccccc21,–,inactive: -8.89%
O=C(Nc1ccc(NC(=O)C2CC2)nc1)c1cccs1,–,inactive: 1.08%
O=C(O)CN1CCN(Cc2ccc(Cl)cc2)C1=O,–,inactive: 8.37%
CC1CC(C)CN(c2ccc([N+](=O)[O-])cc2-c2nn[nH]n2)C1 (stereo unspecified),active: 3.16 µM,–
Cc1oc(-c2ccccc2)nc1C(=O)N1CCN(c2ccc(F)cc2)CC1,–,inactive: 6.29%
O=C(CSc1nnc(-c2ccccc2Cl)n1Cc1ccco1)Nc1ccc2c(c1)OCCO2,–,inactive: -11.1%
COc1cccc(N/N=C/c2cccc(Br)c2O)c1,"inconclusive: 31.6 µM [inhibitor, single point]",–
COC(=O)CC1(c2cccc3ccccc23)C(=O)c2ccccc2C1=O,–,inactive: 2.93%
NS(=O)(=O)c1ccc(N=Cc2c(O)n(-c3nccs3)c(=O)c3ccccc23)cc1,"inconclusive: 25.1 µM [inhibitor, partial curve]",–

Compound,Potency,"activity change, negative = inhibition"
CCN1/C(=C\c2ccc3ccccc3[n+]2CC)Sc2cc(C)ccc21,active: 1.41 µM,–
CC1(C)Cc2c(cnn2-c2ccccc2)-c2c1c1ccccc1n2CC(O)CCl (stereo unspecified),"inconclusive: 28.2 µM [inhibitor, partial curve]",–
CCN(CC)c1ccc(/C=N/NC(=O)c2ccc3nc[nH]c3c2)cc1,"inconclusive: 28.2 µM [inhibitor, single point]",–
CC(=O)Nc1ccc(NC(=O)c2ccccc2S(=O)(=O)c2ccc([N+](=O)[O-])cc2)cc1,–,inactive: -5.08%
O=S(=O)(Nc1cccc2ccccc12)N1CCCC1,"inconclusive: 39.8 µM [inhibitor, single point]",–
COc1ccccc1N1CCN(c2nc(N)c(C#N)c(CC#N)c2C#N)CC1,–,inactive: 0.941%
O=C(NNC(=O)c1cc(-c2ccco2)nc2ccccc12)c1ccccc1,"inconclusive: 31.6 µM [inhibitor, partial curve]",–
Cc1ccc(NCC(O)C(O)C(O)CO)c(N=Nc2ccccc2)c1C (stereo unspecified),–,inactive: -5.31%
COc1cccc(C(=O)Nc2ccc(NC(=O)c3ccco3)c(Cl)c2)c1,"inconclusive: 35.5 µM [inhibitor, single point]",–
O=S(=O)(Nc1ccc2c(c1)OCCO2)c1ccc2oc3ccccc3c2c1,–,inactive: -5.4%
O=c1[nH][nH]cc1C=Nc1cc(Cl)ccc1O,"inconclusive: 28.2 µM [inhibitor, single point]",–
COc1cc(-c2nnc(SCc3ccccc3Cl)o2)cc(OC)c1OC,–,inactive: -2.97%
COc1ccc(CCn2c(=N)c(C(=O)N3CCN(C)CC3)cc3c(=O)n4ccccc4nc32)cc1,"inconclusive: 22.4 µM [inhibitor, partial curve]",–
Cc1ccc2cc(C#N)c(SCc3nnc(-c4ccccc4[N+](=O)[O-])o3)nc2c1,"inconclusive: 35.5 µM [inhibitor, single point]",–
O=C(CCNc1ccc(F)cc1)c1cccc([N+](=O)[O-])c1,–,inactive: 2.7%
COC(=O)NCC(c1cccnc1)N1CCOCC1 (stereo unspecified),"inconclusive: 39.8 µM [inhibitor, single point]",–
CCC1(C)N=c2c(c(=O)n(C)c(=O)n2C)=NO1 (stereo unspecified),–,inactive: -2.12%
O=C(CN1CCN(c2ncccn2)CC1)NCCC1=CCCCC1,"inconclusive: 39.8 µM [inhibitor, single point]",–
O=C(O)c1cc(-c2cccs2)nc2cc3c(cc12)OCCO3,"inconclusive: 28.2 µM [inhibitor, partial curve]",–
O=C(NNC1=NCCC1)c1cccc(Br)c1,–,inactive: -10.1%
O=C(O)c1ccc(O)c(N2C(=O)Nc3ccccc3N2O)c1,"inconclusive: 20 µM [inhibitor, partial curve]",–
CN(C)c1cc(N/N=C\c2ccccc2)nc(N(C)C)n1,–,inactive: 9.21%
N#Cc1c(SCC(N)=O)nsc1SCc1ccccc1Cl,–,inactive: 8.92%
c1ccc2[nH]c(SCc3cscn3)nc2c1,–,inactive: -2.02%
CCCCCCNC(=O)Nc1ccc(S(=O)(=O)Nc2ccc(CCNC[C@H](O)COc3ccc(O)cc3)cc2)cc1,"inconclusive: 8.91 µM [inhibitor, single point]",–
